Laboratory results: publication PMC4336329 (PLoS ONE, 2015)
Out of some 310,000 compounds screened, about 2,200 (0.71%) showed an effect of 50% or more. The effect is printed as a negative number. The list shows a part of the results.

Molecular target: human ether-à-go-go-related gene (hERG) potassium channel (human, UniProt Q12809)
Assay: primary screen, population patch clamp on CHO cells stably expressing hERG

Chain of human ether-à-go-go-related gene (hERG) potassium channel (Q12809 whole entry, looked up): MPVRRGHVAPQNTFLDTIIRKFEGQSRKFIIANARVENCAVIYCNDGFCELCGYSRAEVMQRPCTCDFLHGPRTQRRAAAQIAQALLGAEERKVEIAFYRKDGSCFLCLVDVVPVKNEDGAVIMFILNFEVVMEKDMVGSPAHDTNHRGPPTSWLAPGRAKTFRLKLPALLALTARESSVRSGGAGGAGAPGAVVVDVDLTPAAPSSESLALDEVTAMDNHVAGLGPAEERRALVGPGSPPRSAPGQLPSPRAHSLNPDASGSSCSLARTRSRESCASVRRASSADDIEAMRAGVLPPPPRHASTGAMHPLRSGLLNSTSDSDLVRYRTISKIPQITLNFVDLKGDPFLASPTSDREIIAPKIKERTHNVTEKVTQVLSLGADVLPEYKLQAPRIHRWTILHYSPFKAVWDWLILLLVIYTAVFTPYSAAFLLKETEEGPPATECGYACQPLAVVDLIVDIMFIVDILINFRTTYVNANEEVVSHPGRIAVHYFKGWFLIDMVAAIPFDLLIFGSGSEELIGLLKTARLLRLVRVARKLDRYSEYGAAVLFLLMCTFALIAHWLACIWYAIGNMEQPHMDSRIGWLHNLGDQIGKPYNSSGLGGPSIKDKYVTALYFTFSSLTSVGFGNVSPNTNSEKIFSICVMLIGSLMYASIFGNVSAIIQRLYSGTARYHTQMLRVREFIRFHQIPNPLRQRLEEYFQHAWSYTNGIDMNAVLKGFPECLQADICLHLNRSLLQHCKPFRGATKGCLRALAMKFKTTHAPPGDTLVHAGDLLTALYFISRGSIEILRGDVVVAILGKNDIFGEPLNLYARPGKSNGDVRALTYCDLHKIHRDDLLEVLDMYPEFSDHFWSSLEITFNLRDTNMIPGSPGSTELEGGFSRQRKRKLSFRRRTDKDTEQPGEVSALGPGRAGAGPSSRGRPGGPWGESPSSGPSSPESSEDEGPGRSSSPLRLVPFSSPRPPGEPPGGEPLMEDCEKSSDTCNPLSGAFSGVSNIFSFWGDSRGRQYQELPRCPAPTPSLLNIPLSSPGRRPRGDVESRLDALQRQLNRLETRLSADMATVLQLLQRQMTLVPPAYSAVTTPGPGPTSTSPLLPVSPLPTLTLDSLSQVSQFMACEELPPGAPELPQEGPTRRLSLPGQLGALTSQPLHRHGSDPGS

| SMILES | hERG current change (%, negative = inhibition) at 1uM [%] |
| --- | --- |
| C=CCN(C(=O)CCC(=O)Nc1cc(C)on1)C(C(=O)NC1CCCC1)c1ccc(C)cc1 (centres unmarked) | 12.9 |
| COC(CN(C(=O)CCl)C(C(=O)NC1CCCC(C)C1C)c1ccc(C)cc1)OC (centres unmarked) | 9.46 |
| O=C1CC(N2C(=O)/C(=C/C=C/c3ccccc3)SC2=S)C(=O)N1c1ccccc1 (centres unmarked) | 7.82 |
| Cn1c(Nc2ccc(Cl)cc2)cc(=O)n(C)c1=O | 21.3 |
| CCC1C(=O)N(c2nc(C)cc(C)n2)N=C1C (centres unmarked) | 6.09 |
| CCOC(=O)C1=C(N)Oc2c(oc(CO)cc2=O)C1c1ccc(Cl)cc1 (centres unmarked) | 5.48 |
| CC(CCc1ccccc1)NC(=O)CCc1cn(C)c2ccccc12 (centres unmarked) | 21 |
| Cc1ccc(OCC(=O)NCCNC(=O)c2ccccn2)cc1 | 16.4 |
| COc1ccc(S(=O)(=O)N2CCCCC2)cc1NC(=O)COc1ccccc1 | 13.7 |
| Cc1ccc(S(=O)(=O)N2CCN(C(=O)CCCOc3ccc(Cl)cc3C)CC2)cc1 | 0.647 |
| CCOC(=O)NC(=S)Nc1ccc(C(C)(C)C)cc1 | 9.52 |
| Cc1ccc2[nH]c3c(c2c1)CCCC3C(N)=O (centres unmarked) | 7.6 |
| O=C(N/N=C1/CC2C=CCC12)c1ccc(Br)o1 (centres unmarked) | 14.8 |
| COc1ccccc1NC(=O)c1ccc(NS(=O)(=O)c2cccc3cccnc23)cc1 | 11.7 |
| Cl.O=C(O)C(c1ccccc1)N1CCCCC1 (centres unmarked) | 15.4 |
| COc1cccc(-c2ccc(NC(=O)C3CCCN(Cc4nccn4C)C3)cc2)c1 (centres unmarked) | -6.7 |
| O=C(NN1C(=O)C2CCCCC2C1=O)c1ccco1 (centres unmarked) | 8.35 |
| Cc1nn(C(=O)CNC(=O)c2ccccc2)c(C)c1C | 12.5 |
| Cc1ccc(Nc2c([N+](=O)[O-])ccc3nonc23)cc1C | 15.3 |

| SMILES | hERG current change (%, negative = inhibition) at 1uM [%] |
| --- | --- |
| O=C(C/C=N\OCc1ccc([N+](=O)[O-])cc1)Nc1ccccc1 | -10.3 |
| Cc1cc(C)nc(SCC(=O)N2CCC(C(N)=O)CC2)n1 | 10.4 |
| Cc1ccc(C2=NN(C(=O)CCC(=O)O)C(c3cccs3)C2)cc1 (centres unmarked) | 18.7 |
| Cc1cccc(Nc2ncnc3onc(-c4cccc(Cl)c4)c23)c1 | 5.3 |
| CCN(C(=O)CCNC(=O)Cn1cnc2ccccc2c1=O)c1cccc(Cl)c1 | 8.59 |
| CCOc1ccc(-n2ccc(=O)c(C(=O)Nc3ccc(S(=O)(=O)Nc4nccs4)cc3)n2)cc1 | 27 |
| NS(=O)(=O)c1ccc(NC(=O)CN2C(=O)c3ccccc3C2=O)cc1 | 0.122 |
| C=CCNC(=O)C1(c2ccccc2)CC1(Cl)Cl (centres unmarked) | 9.14 |
| O=C(Nc1nc(-c2cccs2)cs1)c1ccc(Cl)s1 | -6.43 |
| COc1ccc(N(CC(=O)NCCSCc2ccccc2C)S(=O)(=O)c2ccccc2)cc1 | 8.83 |
| CCOC(=O)c1cnn(-c2cc(C(C)(C)C)nc3c(-c4ccccc4)c(C)nn23)c1N | 1.04 |
| COc1ccc(NC(=O)CN2C(=O)C(C)SC(C)C2=O)cc1 (centres unmarked) | 6.14 |
| CCCCn1c(SCC(=O)Nc2nccs2)nc2ccccc2c1=O | 15.9 |
| COc1ccc(N2CCN(C(=O)Cn3c(=O)c4cccn4c4cccnc43)CC2)cc1 | -3.7 |
| COc1ccc2cc(C(=O)C3CCCN(C(=O)c4cnccn4)C3)ccc2c1 (centres unmarked) | -0.88 |
| CCN(CC)S(=O)(=O)c1cc(NC(=O)COc2ccc(C#N)cc2OC)ccc1C | 5.63 |
| COc1ccc(C2=NN(CN3C(=O)C(=O)c4ccccc43)C(c3ccc(C)cc3)C2)cc1 (centres unmarked) | 9.53 |
| Cc1ccc(Cn2c(NS(=O)(=O)c3ccccc3)nc3ccccc32)cc1 | 16.3 |
| Cc1cc(C)c(C(=O)Nc2ccc(C)c(C)c2)c(CC(C)(C)C(=O)O)c1 | 15.7 |

| SMILES | hERG current change (%, negative = inhibition) at 1uM [%] |
| --- | --- |
| CCOc1ccc(-c2nnc(NC(=O)CCCOc3cccc(C)c3)o2)cc1 | 12.5 |
| NC(=S)N/N=C/c1coc2c(ccc3ccccc32)c1=O | 13.4 |
| COc1ccc(CC(=O)NC(=S)Nc2ccc(S(N)(=O)=O)cc2)cc1 | -9.37 |
| CC(=O)Nc1cccc(NC(=O)CSc2nc(C3CC3)nc3ccccc23)c1 | 8.11 |
| O=C(c1cc2c(=O)n3ccccc3nc2s1)N1CCN(Cc2ccc3c(c2)OCO3)CC1 | -2.97 |
| CCOC(=O)c1ccc(N2C(=O)Cc3ccccc3C2=O)cc1 | 10.1 |
| COc1ccc(-n2c(SCC(=O)Nc3ccc(Br)cc3)nc(O)cc2=O)cc1 | 13.2 |
| O=C(N/N=C/c1ccccn1)C(=O)N1CCCCCC1 | 15.1 |
| CC(C)CN1CCN(Cc2cc3ccccc3[nH]2)CC1CCO (centres unmarked) | 8.97 |
| O=c1c(-c2ccccc2)[n+]([O-])c2ccccc2n1O | -2.89 |
| COc1ccc(CCn2c(C)cc(C(=O)CSc3nnnn3-c3ccccc3)c2C)cc1 | 16.5 |
| O=C(N/N=C/c1cc(Br)c(O)c([N+](=O)[O-])c1)C(O)(c1ccccc1)c1ccccc1 | 6.95 |
| COC(=O)C1C(c2ccccc2)C(C(=O)N2CCN(C)CC2)C1c1ccccc1 (centres unmarked) | 0.517 |
| CC1CCCCN1CC(=O)Nc1cc(S(=O)(=O)N2CCOCC2)ccc1N1CCCC1 (centres unmarked) | 2.79 |
| CCOC(=O)c1oc2c(CN3CCN(C)CC3)c(O)ccc2c(=O)c1-c1ccc(Br)cc1 | 0.354 |
| O=C(O)CSc1ncnc2c1oc1ccccc12 | 12 |
| COC(=O)c1ccc(CSc2ccc3nnc(-c4ccc(OC)cc4)n3n2)o1 | 4.21 |
| Cc1ccc(C(=O)NNC(=O)CCCCC(=O)NNC(=O)c2ccc(C)cc2)cc1 | 9.03 |
